Measurements: PubChem BioAssay AID588855 (National Center for Advancing Translational Sciences (NCATS), 2011)
Screen size: about 410,000 compounds; about 5,000 (1.2%) were called active. The inconclusive results got no clear call from the source; some entries with a clear call stand among them for comparison. The call rests on the fitted dose curve; in most records, active means well fitted inhibition curve with a large enough effect; inconclusive means small, poorly fitted or top-dose-only effect; inactive means no such curve, though single readings can be large or run the other way. Potencies of inconclusive entries are doubtful fits and often do not repeat.
On the % scale 0 is the no-effect control and ±100 the full control effect; potency means the concentration at half of the fitted maximal effect; tags describe the fitted curve by direction and shape.

Test: qHTS for Inhibitors of TGF-b; further: nearly all actives have a fitted effect of over 65% in size
Conditions: HepG2 CAGA-GFP TGF-b/SMAD3 reporter, GFP fluorescence, 18 h, TGF-beta stimulated, 500 pg/mL final; series mostly up to 46.1 µM; activity, negative = inhibition: at the top concentration
Procedure, shortened: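 TGF-beta reporter screen: HEPG2 CAGA-GFP, 1% FBS, 500 pg/mL TGF-beta final, 18 h; per-cell GFP summed per well; curves fitted and categorized by class.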
With Cc1cc(NCCCN)nc(-c2ccccc2O)n1 the Potency was inconclusive: 15.8 µM [inhibitor, single point]. With COc1ccccc1N(CC(=O)Nc1cccc(C(F)(F)F)c1)S(C)(=O)=O the “activity, negative = inhibition” value was inactive: -1.85%. In the case of CS(=O)(=O)N(Cc1ccccc1)c1ccc(C(=O)NCc2ccccc2)cc1, the “activity, negative = inhibition” value was inactive: 0.235%. With O=C(CN1C(=O)c2cccc3cccc1c23)N1CCN(Cc2ccc3c(c2)OCO3)CC1 the Potency was inconclusive: 5.62 µM [inhibitor, single point]. In the case of C=CCNC(=S)N1CCC(Cc2ccccc2)CC1, the Potency was inconclusive: 35.5 µM [inhibitor, single point]. For COc1ccc(NC(=O)C(F)(OC)C(F)(F)F)c(OC)c1 (configuration not stated), the Potency was inconclusive: 6.31 µM [inhibitor, single point]. For CCOc1ccc(NC(=O)Cn2c(=O)n(CCc3ccccc3)c(=O)c3c4c(sc32)CN(C(C)=O)CC4)cc1, the “activity, negative = inhibition” value was inactive: -16.9%. For O=C(CN1C(=O)c2ccccc2S1(=O)=O)c1ccc(OC(F)F)cc1, the “activity, negative = inhibition” value was inactive: 10.9%. For CCN(C[C@H]1N[C@@](C)(C(=O)OC)[C@H]2C(=O)N(Cc3ccccc3)C(=O)[C@@H]12)C(=O)C1CCCCC1, the “activity, negative = inhibition” value was inactive: -2.29%. For CN(C)c1ccc(C=c2c3cc(O)ccc3n3c2cc(-c2ccccc2)[n+]3C)cc1, the Potency was active: 11.2 µM. In the case of Cc1ccc(CC(=O)N(Cc2nc(-c3ccc(C)cc3)no2)C(C)C)cc1, the Potency was inconclusive: 11.2 µM [inhibitor, partial curve]. For COc1ccc(-c2cc(C(=O)NCCc3ccccc3)no2)cc1OC, the Potency was inconclusive: 2.51 µM [inhibitor, full curve]. In the case of CN(C(=O)CSc1cn(CC(=O)N2CCCCCC2)c2ccccc12)c1ccccc1, the Potency was inconclusive: 12.6 µM [inhibitor, partial curve, poor fit]. For [O-]/[N+](=C\c1ccncc1)c1ccccc1, the “activity, negative = inhibition” value was inactive: -1.52%. For CCN(CCCNc1ncnc2nc[nH]c12)c1cccc(C)c1, the Potency was inconclusive: 17.8 µM [inhibitor, single point]. With CC(C)CCC(CCN1CCCC1)c1ccc2c(c1)OCO2 (configuration not stated) the Potency was inconclusive: 4.47 µM [inhibitor, single point]. In the case of Cc1ccc(CNC(=O)C(C(C)C)N2Cc3ccccc3C2=O)cc1 (configuration not stated), the Potency was inconclusive: 7.08 µM [inhibitor, partial curve, poor fit]. For Cc1cccc(C(=O)Nc2ccc(-c3nc4ccccc4s3)c(C)c2)c1, the Potency was inconclusive: 5.62 µM [inhibitor, full curve, poor fit]. In the case of Cc1ccccc1C(=O)NCCCNC(=O)c1ccccn1, the Potency was inconclusive: 35.5 µM [inhibitor, single point]. In the case of C[C@]12c3[nH]c4ccc(Cl)cc4c3CCN1C(=O)[C@@H](CC(=O)NCc1ccco1)C[C@@H]2C(=O)N1CCCCC1, the Potency was inconclusive: 17.8 µM [inhibitor, partial curve, poor fit]. With COc1ccc(N2CCN(CCNS(=O)(=O)c3ccc(C)cc3)CC2)cc1 the Potency was inconclusive: 35.5 µM [inhibitor, single point]. In the case of COc1ccc(N2CCN(CC(O)COc3ccccc3C(C)(C)C)CC2)cc1 (configuration not stated), the Potency was inconclusive: 22.4 µM [inhibitor, single point]. For Cc1cc(C)c2[nH]c(=O)c(CN(Cc3cccs3)C(=S)NCc3ccco3)cc2c1, the “activity, negative = inhibition” value was inactive: -11.2%. With CCn1c(-c2cc(-c3ccc(OC(C)C)cc3)nc3ccccc23)n[nH]c1=S the Potency was inconclusive: 35.5 µM [inhibitor, single point]. With CCOCCCNc1nc2c(c(=O)n(C)c(=O)n2C)n1CCCc1ccccc1 the “activity, negative = inhibition” value was inactive: -2.09%. For CCCCNc1sc(S(=O)(=O)CC)nc1S(=O)(=O)c1ccc(C)cc1, the Potency was inconclusive: 11.2 µM [inhibitor, partial curve, poor fit]. For Cc1ccc(NC(=O)C2CCCN(S(=O)(=O)c3cccc4cccnc34)C2)cc1Cl (configuration not stated), the Potency was inconclusive: 2.51 µM [inhibitor, partial curve, poor fit]. For Cc1ccc(C(=O)Nc2cccc(C(=O)OCc3cc(=O)n4c5c(sc4n3)CCCC5)c2)cc1, the Potency was inconclusive: 2 µM [inhibitor, full curve]. In the case of C#CCOCCOCCOCCNc1nc(N2CCN(C(=O)CCCCCCCCCCNC(=O)[C@H]([C@@H](C)CC)n3cc(CCCCCN)nn3)CC2)nc(N2CCN(C(=O)CCCCCCCCCCNC(=O)[C@H](CCCCN)n3cc(CCCC(=O)O)nn3)CC2)n1, the Potency was active: 7.08 µM. For Cc1ccc2[nH]cc(C(c3ccccc3)c3cccs3)c2c1 (configuration not stated), the Potency was active: 12.6 µM. For CCOCCCNC(=O)c1c[nH]c2ccc(C)cc2c1=O, the “activity, negative = inhibition” value was inactive: 8.81%. For CCC(CO)Oc1cc(NCc2ccc(OC)cc2)c2ncn(C(C)C)c2c1 (configuration not stated), the Potency was inconclusive: 35.5 µM [inhibitor, single point]. For CC/C(=C\C1CCCCC1)C(NP(=O)(c1ccccc1)c1ccccc1)c1ccccc1 (configuration not stated), the Potency was inconclusive: 15.8 µM [inhibitor, partial curve, poor fit]. With CCCCN1C(=O)C(=O)N(CC(=O)Nc2sc(C)c(CC)c2C(=O)OCC)C1=O the Potency was inconclusive: 35.5 µM [inhibitor, single point]. For COc1ccc(-n2nc(C(=O)NCC3CCCO3)c3ccccc3c2=O)cc1 (configuration not stated), the “activity, negative = inhibition” value was inactive: -5.37%. With CN(C)CCCN(C(=O)c1ccc2c(c1)CCCC2)c1nc2ccc(F)cc2s1 the Potency was inconclusive: 35.5 µM [inhibitor, single point]. With CCN1CCN(C(=O)c2c(-c3c(F)cccc3Cl)noc2C)CC1 the Potency was inconclusive: 17.8 µM [inhibitor, partial curve, poor fit]. For CCc1ccc(NC(=O)COC(=O)Cn2cnc3ccccc32)cc1, the Potency was inconclusive: 3.55 µM [inhibitor, single point]. For COc1ccccc1CNc1nc(NCc2ccccc2)nc2ccsc12, the Potency was active: 17.8 µM. In the case of CCC(C)Sc1ccc([C@H]2N[C@@](CC(C)C)(C(=O)OC)[C@H]3C(=O)N(C)C(=O)[C@@H]23)cc1 (some centres not stated), the Potency was inconclusive: 2.82 µM [inhibitor, single point]. With O=C(CCc1ccccc1)N1CCN(c2ccc([N+](=O)[O-])cc2)CC1 the Potency was inconclusive: 17.8 µM [inhibitor, partial curve, poor fit]. In the case of COc1ccc(Cl)cc1NC(=O)c1c(-c2ccccc2)noc1C, the “activity, negative = inhibition” value was inactive: 2.25%. In the case of Cc1ccc(C)c(N(CC(=O)Nc2cc(Cl)ccc2Oc2ccccc2)S(C)(=O)=O)c1, the Potency was inconclusive: 35.5 µM [inhibitor, single point]. For COC(=O)CC1(C(=O)OC)Oc2ccc(Br)cc2C(=O)N1c1ccc(Br)cc1Cl (configuration not stated), the Potency was inconclusive: 22.4 µM [inhibitor, single point]. With CCCOC(=O)c1c(NC(=O)c2nc3ncccn3n2)sc(C(=O)OCC)c1C the “activity, negative = inhibition” value was inactive: -17.7%. With Cc1ccc(C2CCN(C(=O)c3cnn(-c4ccccc4Cl)c3C3CCN(C(=O)OC(C)(C)C)CC3)C2)cc1 (configuration not stated) the Potency was inconclusive: 35.5 µM [inhibitor, single point]. With COc1cc(OC)c(C2C=C(C(=O)O)Nc3ncnn32)cc1OC (configuration not stated) the Potency was inconclusive: 6.31 µM [inhibitor, single point]. With Cc1ccccc1NC(=O)c1ccccc1O the Potency was inconclusive: 22.4 µM [inhibitor, single point]. For COc1ccc2[nH]c3c(c2c1)CCN1C(=O)C(CC(=O)NCC24CC5CC(CC(C5)C2)C4)C[C@H](C(=O)N2CCOCC2)[C@@]31C (some centres not stated), the Potency was inconclusive: 15.8 µM [inhibitor, partial curve, poor fit]. In the case of COc1ccc2nc(N(CCN(C)C)C(=O)/C=C/c3cccs3)sc2c1, the Potency was inconclusive: 35.5 µM [inhibitor, partial curve, poor fit]. For CCOc1ccc(CNC(=O)c2ccc(Sc3ccc(C)cc3)c(NC(C)=O)c2)cc1OC, the Potency was inconclusive: 12.6 µM [inhibitor, single point]. With Cc1ccc(C2CC(C(F)(F)F)n3nc(C(=O)NCc4ccco4)cc3N2)cc1 (configuration not stated) the Potency was inconclusive: 2.82 µM [inhibitor, partial curve, poor fit]. With CCOc1ccc(NC(=O)c2cccc3c2C(=O)N(Cc2cccnc2)C3)cc1 the “activity, negative = inhibition” value was inactive: 1.42%. In the case of CCC(C)Sc1cc(-c2nc3ccc(Cl)cn3c2NC2CCCCC2)ccc1OC (configuration not stated), the Potency was inconclusive: 1 µM [inhibitor, full curve, poor fit]. With COc1ccc(CN(C(=O)c2ccc(-c3ccccc3)[nH]2)C(C(=O)NC(C)(C)C)c2ccncc2)cc1 (configuration not stated) the Potency was inconclusive: 22.4 µM [inhibitor, single point]. In the case of COc1ccccc1NS(=O)(=O)c1ccc2c(c1)OCCO2, the “activity, negative = inhibition” value was inactive: -0.773%. For COc1ccccc1CN1C(=O)[C@H]2Cc3c([nH]c4ccccc34)C(C)(C)N2C1=O, the Potency was inconclusive: 22.4 µM [inhibitor, single point]. With COc1ccc(C(=O)/C=C/c2ccc(N3CCCCC3)c([N+](=O)[O-])c2)cc1 the Potency was inconclusive: 35.5 µM [inhibitor, single point]. In the case of CCOc1ccc(C(=O)NCC(=O)OCc2c(C)noc2C)cc1, the Potency was inconclusive: 5.62 µM [inhibitor, single point]. In the case of Cc1ccc(Cn2nnc3c(=O)[nH]c(C4CCN(S(=O)(=O)Cc5ccccc5)CC4)nc32)cc1, the Potency was inconclusive: 35.5 µM [inhibitor, single point]. With CCC1=C(OC(=O)N(CC)CC)N2C(=O)OC(=NCC3CC3)[C@]2(Cc2ccccc2)[C@H]2C1=CC[C@H]1C(=O)N(c3ccccc3)C(=O)[C@H]12 the Potency was inconclusive: 7.08 µM [inhibitor, partial curve, poor fit]. In the case of CCOc1ccc(S(=O)(=O)Nc2nc3ccccc3nc2Nc2ccc(OC)cc2)cc1, the “activity, negative = inhibition” value was inactive: -0.914%.
